This passage reports activation results from PubChem BioAssay AID1346428 (National Center for Advancing Translational Sciences (NCATS), 2018).

In all, about 48,000 compounds went through this assay and about 1,200 (2.5%) were called active. Inconclusive results (about 2%) are left out.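 The calls were made as follows: active = activation of at least 60% and not above a set upper limit (about 1 call in 100 departs from these limits); inconclusive = activation of 40% to 60%, or above that upper limit; inactive = activation under 40%.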 This is one part of the list.

In this assay the target is Probable G-protein coupled receptor 32 (Homo sapiens) (UniProt O75388). As to the kind of experiment: qHTS for Agonists of Human Resolvin D1 Receptor DRV1. Also: 0% is about no effect. As to conditions: CHO-K1 GPR32 beta-arrestin PathHunter luminescence, 90 min; at 76.9 µM; hits give high values; zero percent set by DMSO-only wells. Summed up: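 Agonism was scored as beta-arrestin recruitment to ProLink-fused GPR32 in stably transfected CHO-K1 cells, giving a chemiluminescent beta-Gal signal; compounds were incubated 90 min at 37 °C.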
UniProt O75388, sequence (O75388 whole entry, looked up, the tested form may be a part): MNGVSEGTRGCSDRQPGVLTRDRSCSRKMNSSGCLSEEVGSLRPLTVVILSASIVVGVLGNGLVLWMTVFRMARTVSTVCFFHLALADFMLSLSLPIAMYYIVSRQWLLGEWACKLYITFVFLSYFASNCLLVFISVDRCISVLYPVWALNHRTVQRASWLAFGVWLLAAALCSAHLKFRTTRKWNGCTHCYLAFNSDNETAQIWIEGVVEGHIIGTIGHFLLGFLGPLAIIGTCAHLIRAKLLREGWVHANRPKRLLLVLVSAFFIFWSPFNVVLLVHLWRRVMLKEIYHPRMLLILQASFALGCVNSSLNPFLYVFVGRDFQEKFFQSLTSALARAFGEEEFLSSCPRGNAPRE
Background: qHTS replaces the single test concentration by a dilution series.
Turning to `CC(C)c1ccc(C(=O)Nc2cccc3cccnc23)cc1`, the activation is inactive: 20.5%.
`COc1ccc(CN(C(=O)Nc2ccc(C)c(F)c2)C2CCN(C(C)=O)CC2)cc1`: the activation is inactive: -11.6%.
The same measure for `O=C1C(c2ccc(F)cc2)N(CCc2ccccc2)C(=O)CN1C1CCCCC1` (centres undefined): inactive: 15%; for `CNC(=O)c1cc2n(n1)CCCN(Cc1ccc(F)cc1)C2=O`: inactive: 6.53%.
For the compound `CSc1ccc(CCNC(=O)c2cc3n(n2)CCCN(Cc2ccc(C)cc2)C3=O)cc1`, the activation is inactive: 12.9%.
Consider `CC(=O)c1ccc(NC(=O)CCc2c(C)nn(-c3ccc4nncn4n3)c2C)cc1`, for which the activation is inactive: 0.584%.
The same measure for `CCOc1ccc(CCNS(=O)(=O)c2c(C)nc3sc(C)cn3c2=O)cc1OCC`: inactive: -37.1%; for `Cc1ccc(NC(=O)CCS(=O)(=O)c2ccc3nc(C)sc3c2)cc1`: inactive: 17.2%; for `CCC1CN(C(=O)N2CCC(C(=O)NCCOC)CC2)c2ccccc2O1` (centres undefined): inactive: -14%.
`Cc1ccc(CNC(=O)c2nc(SCc3cccc(C)c3)ncc2Cl)cc1`: the activation is inactive: 8.97%.
The result for `Cc1ccc(CNC(=O)c2cn(C)c3ccc(S(=O)(=O)N(C)C4CCCCC4)cc3c2=O)cc1` reads inactive: -11.8%; that for `CCc1ccc(-n2nc3ccc(NC(=O)c4cc5ccccc5o4)cc3n2)cc1`, inactive: -0.3%.
The result for `CCOc1ccc(-c2cc3c(=O)n(Cc4nc(-c5cccc(OC)c5OC)oc4C)ccn3n2)cc1Cl` reads inactive: -3.26%.
The same measure for `CCC(=O)N1CCc2cc(S(=O)(=O)CCC(=O)N3CCN(c4cccc(C)c4)C(C)C3)ccc21` (centres undefined): active: 66%; for `CCN(Cc1ccc(OC)cc1)c1ccc(-c2nc(-c3ccncc3)no2)cc1[N+](=O)[O-]`: inactive: -4.18%; for `COc1ccc(OC)c(S(=O)(=O)N2Cc3ccccc3CC2C(=O)Nc2ccc(C(C)=O)cc2)c1` (centres undefined): inactive: -17.2%.
As for `O=C(NCCc1ccccc1)c1ccc(Cn2c(SCc3ccc(F)cc3)nc3cccnc32)cc1`, the activation is inactive: -16.3%.
As to `Cc1ccccc1Nc1c(-c2ccsc2)nc2c(C)cccn12`, the activation was inactive: -19.8%.
As for `O=C(NCc1cccc(Cl)c1)c1cccn1-c1nnc(N2CCCC2)s1`, the activation is inactive: -12.4%.
Turning to `Cc1cc(C)c(Cn2c3ccccc3c3cnn(CC(=O)NCCCc4ccccc4)c(=O)c32)c(C)c1`, the activation is inactive: -27.6%.
Take `Cc1ccc(CN(Cc2ccco2)c2cnc(S(C)(=O)=O)nc2C(=O)Nc2ccc(Br)cc2)o1`: the activation is inactive: -20.3%.
The result for `COc1ccc(OC)c(CCNC(=O)CCn2c(=O)c3cccn3c3cccnc32)c1` reads inactive: -15.3%; that for `CC(C)Cn1c(=O)c2ccccc2n2c(-c3ccc(Br)cc3)nnc12`, inactive: -2.07%; that for `CCCCN(c1ccccc1)c1ncnc2c1cnn2-c1ccc(Cl)cc1`, inactive: -14.4%.
The result for `Cc1ccc(-c2cn3cccc(C)c3n2)cc1NS(=O)(=O)c1ccccc1` reads inactive: 45.3%; that for `Cc1ccccc1NC(=O)Cn1c(=O)n(Cc2ccc3c(c2)OCO3)c(=O)c2oc3ccccc3c21`, inactive: -12.4%.
The result for `Cc1cc(C)cc(C(=O)Nc2cc(C(F)(F)F)ccc2N2CCN(c3ccccc3)CC2)c1` reads inactive: 1.87%; that for `O=C(c1ccccc1)N1CCc2cc(CNS(=O)(=O)c3ccccc3Cl)ccc21`, inactive: 0.17%; that for `CCOc1cc(C(=O)OCc2cc(=O)n3c(C)csc3n2)cc(OCC)c1OCC`, inactive: 0.928%.
Take `CC(=O)Nc1ccc(S(=O)(=O)NCC2CCC(C(=O)NCCCOC(C)C)CC2)cc1` (centres undefined): the activation was inactive: -7.22%.
The same measure for `Cc1ccc(-c2nn3c(C)nnc3c3ccccc23)cc1S(=O)(=O)NCCO`: inactive: -5.63%; for `Cc1cccc(N(CC(=O)NC(C)c2ccccc2)S(=O)(=O)c2ccccc2)c1C` (centres undefined): inactive: 1.05%; for `CCCCc1nc(Cl)c(CO)n1Cc1ccc(-c2ccccc2-c2nn[nH]n2)cc1`: inactive: -51.2%.
The same measure for `O=C(NCC1(c2ccccc2)CCCC1)C(=O)Nc1cccc(C(F)(F)F)c1`: inactive: -0.501%.
Turning to `COc1ccc2nc(NS(=O)(=O)c3ccc(C)cc3)c(Nc3cc(Cl)ccc3OC)nc2c1`, the activation was inactive: 42.1%.
The same measure for `CCOc1ccc(CCNC(=O)CSc2cc(=O)n(C)c3ccccc23)cc1OCC`: inactive: 10.1%; for `CCCCC(CC)COC(=O)/C=C/c1ccc(OC)cc1` (centres undefined): inactive: 11.1%.
The result for `O=C1CC(c2ccccc2)Cc2[nH]c(=O)c(-c3nc(-c4cccc(Cl)c4)cs3)cc21` (centres undefined) reads inactive: -12.9%.
Regarding `COc1ccc(CNC(=O)C(=O)NCC(c2ccc3c(c2)OCO3)N2CCOCC2)cc1` (centres undefined), the activation is inactive: -18.3%.
`CCOC(=O)Cn1c(=O)oc2cc(S(=O)(=O)NCc3ccc(F)cc3)ccc21`: the activation was inactive: -9.55%.
The result for `COC(=O)c1sccc1S(=O)(=O)N1CCN(c2cccc(C)c2C)CC1` reads inactive: -1.02%; that for `O=C(CSc1n[nH]c(-c2ccccc2)n1)N1CCCCC1`, inactive: 7.63%.
For the compound `Cc1ccc(Cl)cc1N1CCN(C(c2ccc(F)cc2)c2nnc(-c3ccccc3)o2)CC1` (centres undefined), the activation is inactive: -20%.
`CCN(CC)CCc1nc(-c2ccccc2)no1`: the activation was inactive: 8.27%.
Regarding `Cc1noc(/C=C/N(C)C)c1S(=O)(=O)N1CCCC(C(=O)Nc2cccc(F)c2)C1` (centres undefined), the activation is inactive: -14.1%.
In the case of `CCOc1ccc(CC(=O)NCCc2csc3nc(-c4ccccc4F)nn23)cc1`, the activation is inactive: 34.6%.
With `CCCCN(C)CCNC(=O)Cn1ncc2c3ccccc3n(CCC)c2c1=O`, the activation was inactive: -4.98%.
The same measure for `CCN(CC)c1ccc2cc(-c3nnc(-c4cccc(Cl)c4)o3)c(=O)oc2c1`: inactive: 18.9%; for `Cc1csc2nc(-c3cccc(NC(=O)c4cccc(F)c4)c3)cn12`: inactive: -2.22%.
Consider `O=C(CS(=O)Cc1ccco1)NC/C=C\COc1cc(CN2CCCCC2)ccn1` (centres undefined), for which the activation was inactive: -16.6%.
On to `Cc1cccc(-c2noc(CN(C(=O)c3ccc(C)c(C)c3)C(C)C)n2)c1`, for which the activation is inactive: 14.6%.
For `Cc1ccc(NC(=O)c2ncn(-c3ccccc3)n2)c(Cl)c1`, the activation was inactive: -5.82%.
As for `COc1ccc(C)cc1N(C)C(=O)c1sc2nc3n(c(=O)c2c1C)CCCCC3`, the activation was inactive: -5.36%.
For `CCOc1ccc(CCNC(=O)C2=C(C)C(=O)OC23CCC(C)CC3)cc1OCC` (centres undefined), the activation is inactive: -22.6%.
